For this experiment, the system named is C3AKF1 mice, hamster liver cystadenocarcinoma s.c., tumor weight T/C. The experiment can be described thus: NCI In Vivo Anticancer Drug Screen. Data for tumor model Cystadenocarcinoma, Liver (No. 1) (Hamster) (subcutaneous) in C3AKF1 (CHKRF1) mice. The settings on record: endpoint: mean tumor weight, schedule: Q01DX010 (ip), higher = larger tumour. As for the experimental part: The antitumor activity of compounds was measured in mice bearing transplantable tumors. Survival or tumor size were measured and the results are expressed as the measurement made in the treated group (T) divided by the measurement made in the vehicle treated control group (C). The tumor model used in this assay is Cystadenocarcinoma, Liver (No. 1) (Hamster) (subcutaneous) in C3AKF1 (CHKRF1) mice

[1] abbreviates: dose: 200.0 mg/kg/injection, vehicle: carboxymethylcellulose (CMC).
The mark [2] stands for this setting: dose: 30.0 mg/kg/injection, vehicle: carboxymethylcellulose (CMC).

Inconclusive results are not listed. Certain results were filed several times, with different values. They are shown here; other results are not. An entry can have further records. Values given together are repeats across runs, samples, wells, individuals or studies.

For `ClCCn1cnc2c(SCc3ccccc3Cl)ncnc21`, under setting [1], the T/C was 80 % of control and 114 % of control.
For the compound `Cn1cnc([N+](=O)[O-])c1Sc1nc(N)nc2c1ncn2C1OC(CO)C(O)C1O` (stereo unspecified), the T/C (dose: 7.0 mg/kg/injection, vehicle: carboxymethylcellulose (CMC)) was 74 % of control and 113 % of control.
Regarding `Nc1nc(SCc2ccccc2Cl)c2ncn(C3OC(CO)C(O)C3O)c2n1` (stereo unspecified), the T/C (dose: 50.0 mg/kg/injection, vehicle: carboxymethylcellulose (CMC)) is 79 % of control and 121 % of control.
With `CCCC(=O)NC1=C(N2CC2)C(=O)C(NC(=O)CCC)=C(N2CC2)C1=O`, the T/C (dose: 1.1 mg/kg/injection, vehicle: saline) was 36 % of control and 67 % of control.
On to `C/C=C1\CN(C)[C@H]2Cc3c([nH]c4ccccc34)[C@@H](c3cc4[nH]c5c(c4cc3OC)CCN3C[C@H]4C[C@H](CC)[C@H]3[C@@]5(C(=O)OC)C4)C[C@H]1C2C(=O)OC` (stereo partly specified), for which the T/C reads like this: (dose: 13.0 mg/kg/injection, vehicle: water) 67 % of control and 100 % of control; (dose: 20.0 mg/kg/injection, vehicle: water) 53 % of control and 95 % of control.
On to `Nc1ncnc2c1ncn2C1CCCO1` (stereo unspecified), for which, where the note is “dose: 100.0 mg/kg/injection, vehicle: carboxymethylcellulose (CMC)”, the T/C was 62 % of control and 94 % of control.
In the case of `O=[N+]([O-])c1ccccc1CSc1ncnc2nc[nH]c12`, the T/C is 64 % of control and 93 % of control (dose: 62.0 mg/kg/injection, vehicle: carboxymethylcellulose (CMC)); 33 % of control and 94 % of control (dose: 125.0 mg/kg/injection, vehicle: carboxymethylcellulose (CMC)).
Turning to `Fc1ccc(CSc2ncnc3c2ncn3C2CCCCO2)cc1` (stereo unspecified), the T/C (dose: 180.0 mg/kg/injection, vehicle: carboxymethylcellulose (CMC)) is 61 % of control and 105 % of control.
Regarding `CCCn1cnc2c(SCc3ccccc3Cl)nc(N)nc21`, the T/C under setting [1] is 39 % of control and 112 % of control.
With `Clc1ncnc2c1ncn2C1CCCO1` (stereo unspecified), the T/C under setting [1] is 60 % of control and 104 % of control.
Regarding `CN(N=O)C(N)=O`, the T/C by setting is: (dose: 15.0 mg/kg/injection, vehicle: carboxymethylcellulose (CMC)) 59 % of control and 90 % of control; under setting [2], 65 % of control and 106 % of control.
Turning to `CCn1cnc2c(=S)nc(N)[nH]c21`, under setting [2], the T/C was 37 % of control and 89 % of control.
For the compound `CCCCSc1nc(N)nc2c1ncn2CC(C)CC` (stereo unspecified), where the note is “dose: 500.0 mg/kg/injection, vehicle: carboxymethylcellulose (CMC)”, the T/C was 60 % of control and 92 % of control.

Values taken from PubChem BioAssay AID234 (DTP/NCI, 2004).
